Assay results published in the supplement of paper PMC12217912.
Some of the results follow. Sequences were assembled here from the parent chain. Values near 0.05 are background.

B1: TEV protease; numbered along this chain (parent)
chain: MGESLFKGPRDYNPISSSICHLTNESDGHTTSLYGIGFGPFIITNKHLFRRNNGTLVVQSLHGVFKVKDTTTLQQHLVDGRDMIIIRMPKDFPPFPQKLKFREPQREERICLVTTNFQTKSMSSMVSDTSCTFPSGDGIFWKHWIQTKDGQCGSPLVSTRDGFIVGIHSASNFTNTNNYFTSVPKNFMELLTNQEAQQWVSGWRLNADSVLWGGHKVFMVKPEEPFQPVKEATQL

Variants of: B1
Test: raw area under fraction-flipped curve 0-4 h after induction (AUC4h, not background-subtracted), DNA-recorder readout of cleavage of the substrate (dimensionless); higher = more cleavage of the substrate by the protease variant
Settings: temperature: 34 °C; time window: 0-4 h after rhamnose induction
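Further: Bxb1 expression induced with 0.2% (w/v) L-rhamnose at OD600 near 0.5, cultures sampled hourly, flipped fraction per protease–substrate barcode pair counted by paired-end Illumina sequencing.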

| Variant | area with substrate ENLYFQF | area with substrate ENLYFQG | area with substrate ENLYFQH | area with substrate ENLYFQI | area with substrate ENLYFQL | area with substrate ENLYFQR | area with substrate ENLYFQS | area with substrate ENLYFQT | area with substrate ENLYFQW | area with substrate ENLYFQE |
| --- | --- | --- | --- | --- | --- | --- | --- | --- | --- | --- |
| MGESLFKGPRDYNPISSSICHLTNESDGHTTSLYGIGFGPFIITNKHLFRRNNGTLVVQSLHGVFKVKDTTTLQQHLVDGRDMIIIRMPKDFPPFPQKLKFREPQREERICLVTTNFQTKSMSSMVSDTSCTSPSGDGIFWKHWIQTKDGQCGSPLVSTRDGFIVGIHSASNFTNTNNYFTSVPKNFMELLTNQEAQQWVSGWRLNADSVLWGGHKVFMVKPEEPFQPVKEATQL [F133S] | 0.0545 | 0.11 | 0.0926 | 0.0632 | 0.0827 | 0.0593 | 0.103 | 0.0608 | 0.0624 | – |
| MGESLFKGPRDYNPISSSICHLTNESDGHTTSLYGIGFGPFIITNKHLFRRNNGTLVVQSLHGVFKVKDTTTLQQHLVDGRDMIIIRMTKDFPPFPQKLKFREPQREERICLVTTNFQTKSMSSMVSDTSCTFPSGDGIFWKHWIQTKDGQCGSPLVSTRDGFIVGIHSASNFTNTNNYFTSVPKNFMELLTNQEAQQWVSGWRLNADSVLWGGHKVFMVKPEEPFQPVKEATQL [P89T] | – | 0.0868 | – | – | – | 0.0426 | 0.0886 | 0.0819 | – | 0.0342 |
| MGESLFKGPRDYNPISSSICHLTNESDGHTTSLYGIGFGPFIITNKHLFRRNNGTLVVQSLHGVFKVKDTTTLQQHLVDGRDMIIIRMPKDFPPFPQKLKFREPQREERICLVTTNFQTKSMSSMVSDTSCTFPSGDGIFWKHWIQTKDGQCGSPLVSTRDGFIVGIHSASNFTNTRNYFTSVPKNFMELLTNQEAQQWVSGWRLNADSVLWGGHKVFMVKPEEPFQPVKEATQL [N177R] | 0.0782 | – | 0.1 | 0.0618 | 0.0588 | 0.0765 | 0.135 | 0.0491 | – | – |
| MGESLCKGPRDYNPISSSICHLTNESDGHTTSLYGIGFGPFIITNKHLFRRNNGTLVVQSLHGVFKVKDTTTLQQHLVDGRDMIIIRMPKDFPPFPQKLKFREPQREERICLVTTNFQTKSMSSMVSDTSCTFPSGDGIFWKHWIQTKDGQCGSPLVSTRDGFIVGIHSASNFTNTNNYFTSVPKNFMELLTNQEAQQWVSGWRLNADSVLWGGHKVFMVKPEEPFQPVKEATQL [F6C] | – | – | – | 0.0655 | – | – | 0.0874 | 0.068 | – | 0.0621 |
| MGESLFKGPRDYNPISSSICHLTNESDGHTTSLYGIGFGPFIITNKHLFRRNNGTLVVQSLHGVFKVKDTTTLQQHLVDGRDMIIIRMPKDFPPFPQKLKFREPQREERICLVTTNFQTKSMSSMVSDTSCTFPSGDGIFWKHWIQTKDGQCGSPLVSTRDGFIVGIHSASNFTNTNNYFNSVPKNFMELLTNQEAQQWVSGWRLNADSVLWGGHKVFMVKPEEPFQPVKEATQL [T181N] | 0.0552 | – | – | – | – | – | 0.0681 | 0.0702 | – | – |
| MGESLFKGPRDYNPISSSICHLTNESDGHTTSLYGIGFGPFIITNKHLFRRNNGTLVVQSLHGVFKVKDTTTLQQHLVDGRDMIIIRMPKDFPPFPQKLKFREPQREERICLVTTNFQTKSMSSMVSDTSCTFPSGDGIFWKHWIQTKDGQCGSPLVSTRDGFIVGIHSASNFTNTNNYFTSVPKNFMELLTNQEAQQWVSGWRLNADSVLWGGHKVFMVKPEEPFQPVKEATQD [L235D] | – | – | 0.101 | 0.0642 | – | 0.0733 | 0.123 | – | – | – |
| MGESLFKGPRDYNPISSSICHLTNESDGHTTSLYGIGFGPFIITNKHLFRRNNGTLVVQSLHGVFKVKDTTTLQQHLVDGRDMIIIRMPKDFPPFPQKLKFREPQREERICLVTTNFQTKSMSSMVSDTSCTFPSGDGIFWKHWIQTKDGQCGSPLVSTRDGFIVGIHSASNFMNTNNYFTSVPKNFMELLTNQEAQQWVSGWRLNADSVLWGGHKVFMVKPEEPFQPVKEATQL [T174M] | – | – | – | 0.0028 | – | – | 0.0988 | – | – | 0.0543 |
| MGESLFKGPRDYNPISSSICHLTNESDGHTTSLYGIGFGPFIITNKHLFRRNNGTLVVQSLHGVFKVKDTTTLQQHLVDGRDMIIIRMPKDFPPFPQKLKFREPQREERICLVTTNFQTKSMSSMVSDTSCTFPSGDGIFWKHWIQTKDGQCGSPLVSTRDGFIVGIHSASNFTNTNNYFTSVPKNFMELLTNQEAQQWVSGWRLNADSVGWGGHKVFMVKPEEPFQPVKEATQL [L211G] | – | 0.0822 | 0.0846 | – | 0.0422 | 0.0585 | 0.0945 | 0.0753 | – | – |
| MGESLFKGPRDYNPISSSICHLTNESDGHTTSLYGIGFGPFIITNKHLFRRNNGTLVVESLHGVFKVKDTTTLQQHLVDGRDMIIIRMPKDFPPFPQKLKFREPQREERICLVTTNFQTKSMSSMVSDTSCTFPSGDGIFWKHWIQTKDGQCGSPLVSTRDGFIVGIHSASNFTNTNNYFTSVPKNFMELLTNQEAQQWVSGWRLNADSVLWGGHKVFMVKPEEPFQPVKEATQL [Q59E] | 0.0801 | – | 0.0751 | 0.0676 | 0.0728 | – | 0.0973 | 0.0639 | – | 0.0545 |
| MGESLFKGPRDYNPISSSICHLTNESDGHTTSLYGIGFGPFIITNKHLFRRNNGTLVVQSLHGVFKVKDTTTLQQHLVDGRDMIIIRMPKDFPPFPQKLKFREPQREERICLVTTNFQTKSMSSMVSDTSCTFPSGDGIFWKHWIQTKDGQCGSPLVSTRDGFIVGIHSASNFTNTNNYFTSVPKNFMELLTNQEAQQWVSGWRLNADSVLWGGHKVFMVKPEEPFQTVKEATQL [P228T] | – | – | – | 0.0822 | – | – | 0.101 | 0.0539 | – | – |
| MGESLFKGPRDYNPISSSICHLTNESDGHTTSLYGIGFGPFIITNKHLFRRNNGTLVVQSLHGVFKVKDTTTLQQHLVDGRDMIIIRMPKDFPPFPQKLKFREPQRTERICLVTTNFQTKSMSSMVSDTSCTFPSGDGIFWKHWIQTKDGQCGSPLVSTRDGFIVGIHSASNFTNTNNYFTSVPKNFMELLTNQEAQQWVSGWRLNADSVLWGGHKVFMVKPEEPFQPVKEATQL [E107T] | – | – | – | – | 0.0648 | 0.0638 | 0.106 | 0.0712 | 0.0727 | 0.0649 |

Same assay, conditions: temperature: 34 °C; time window: 0-4 h after rhamnose induction

| Variant | area with substrate ENLYFQN | area with substrate ENLYFQP | area with substrate ENLYFQV | area with substrate ENLYFQY | area with substrate ENLYFQK | area with substrate ENLYFQD | area with substrate ENLYFQM |
| --- | --- | --- | --- | --- | --- | --- | --- |
| MGESLFKGPRDYNPISSSICHLTNESDGHTTSLYGIGFGPFIITNKHLFRRNNGTLVVQSLHGVFKVKDTTTLQQHLVDGRDMIIIRMTKDFPPFPQKLKFREPQREERICLVTTNFQTKSMSSMVSDTSCTFPSGDGIFWKHWIQTKDGQCGSPLVSTRDGFIVGIHSASNFTNTNNYFTSVPKNFMELLTNQEAQQWVSGWRLNADSVLWGGHKVFMVKPEEPFQPVKEATQL [P89T] | 0.0997 | 0.0582 | 0.0747 | 0.0643 | – | – | – |
| MGESLFKGPRDYNPISSSICHLTNESDGHTTSLYGIGFGPFIITNKHLFRRNNGTLVVQSLHGVFKVKDTTTLQQHLVDGRDMIIIRMPKDFPPFPQKLKFREPQREERICLVTTNFQTKSMSSMVSDTSCTFPSGDGIFWKHWIQTKDGQCGSPLVSTRDGFIVGIHSASNFTNTRNYFTSVPKNFMELLTNQEAQQWVSGWRLNADSVLWGGHKVFMVKPEEPFQPVKEATQL [N177R] | 0.0914 | – | – | – | 0.0708 | – | – |
| MGESLCKGPRDYNPISSSICHLTNESDGHTTSLYGIGFGPFIITNKHLFRRNNGTLVVQSLHGVFKVKDTTTLQQHLVDGRDMIIIRMPKDFPPFPQKLKFREPQREERICLVTTNFQTKSMSSMVSDTSCTFPSGDGIFWKHWIQTKDGQCGSPLVSTRDGFIVGIHSASNFTNTNNYFTSVPKNFMELLTNQEAQQWVSGWRLNADSVLWGGHKVFMVKPEEPFQPVKEATQL [F6C] | – | – | – | – | 0.069 | – | – |
| MGESLFKGPRDYNPISSSICHLTNESDGHTTSLYGIGFGPFIITNKHLFRRNNGTLVVQSLHGVFKVKDTTTLQQHLVDGRDMIIIRMPKDFPPFPQKLKFREPQREERICLVTTNFQTKSMSSMVSDTSCTFPSGDGIFWKHWIQTKDGQCGSPLVSTRDGFIVGIHSASNFTNTNNYFNSVPKNFMELLTNQEAQQWVSGWRLNADSVLWGGHKVFMVKPEEPFQPVKEATQL [T181N] | – | 0.0597 | – | – | – | – | – |
| MGESLFKGPRDYNPISSSICHLTNESDGHTTSLYGIGFGPFIITNKHLFRRNNGTLVVQSLHGVFKVKDTTTLQQHLVDGRDMIIIRMPKDFPPFPQKLKFREPQREERICLVTTNFQTKSMSSMVSDTSCTFPSGDGIFWKHWIQTKDGQCGSPLVSTRDGFIVGIHSASNFTNTNNYFTSVPKNFMELLTNQEAQQWVSGWRLNADSVLWGGHKVFMVKPEEPFQPVKEATQD [L235D] | – | – | – | – | – | 0.0807 | – |
| MGESLFKGPRDYNPISSSICHLTNESDGHTTSLYGIGFGPFIITNKHLFRRNNGTLVVQSLHGVFKVKDTTTLQQHLVDGRDMIIIRMPKDFPPFPQKLKFREPQREERICLVTTNFQTKSMSSMVSDTSCTFPSGDGIFWKHWIQTKDGQCGSPLVSTRDGFIVGIHSASNFMNTNNYFTSVPKNFMELLTNQEAQQWVSGWRLNADSVLWGGHKVFMVKPEEPFQPVKEATQL [T174M] | 0.0773 | – | 0.0661 | 0.0567 | 0.0663 | – | 0.0878 |
| MGESLFKGPRDYNPISSSICHLTNESDGHTTSLYGIGFGPFIITNKHLFRRNNGTLVVQSLHGVFKVKDTTTLQQHLVDGRDMIIIRMPKDFPPFPQKLKFREPQREERICLVTTNFQTKSMSSMVSDTSCTFPSGDGIFWKHWIQTKDGQCGSPLVSTRDGFIVGIHSASNFTNTNNYFTSVPKNFMELLTNQEAQQWVSGWRLNADSVGWGGHKVFMVKPEEPFQPVKEATQL [L211G] | 0.0646 | 0.0673 | 0.0495 | 0.0627 | – | 0.0709 | 0.0614 |
| MGESLFKGPRDYNPISSSICHLTNESDGHTTSLYGIGFGPFIITNKHLFRRNNGTLVVESLHGVFKVKDTTTLQQHLVDGRDMIIIRMPKDFPPFPQKLKFREPQREERICLVTTNFQTKSMSSMVSDTSCTFPSGDGIFWKHWIQTKDGQCGSPLVSTRDGFIVGIHSASNFTNTNNYFTSVPKNFMELLTNQEAQQWVSGWRLNADSVLWGGHKVFMVKPEEPFQPVKEATQL [Q59E] | – | – | 0.0684 | 0.0714 | – | – | 0.0809 |
| MGESLFKGPRDYNPISSSICHLTNESDGHTTSLYGIGFGPFIITNKHLFRRNNGTLVVQSLHGVFKVKDTTTLQQHLVDGRDMIIIRMPKDFPPFPQKLKFREPQREERICLVTTNFQTKSMSSMVSDTSCTFPSGDGIFWKHWIQTKDGQCGSPLVSTRDGFIVGIHSASNFTNTNNYFTSVPKNFMELLTNQEAQQWVSGWRLNADSVLWGGHKVFMVKPEEPFQTVKEATQL [P228T] | 0.0889 | – | – | 0.0753 | 0.0692 | 0.0389 | 0.0958 |
| MGESLFKGPRDYNPISSSICHLTNESDGHTTSLYGIGFGPFIITNKHLFRRNNGTLVVQSLHGVFKVKDTTTLQQHLVDGRDMIIIRMPKDFPPFPQKLKFREPQRTERICLVTTNFQTKSMSSMVSDTSCTFPSGDGIFWKHWIQTKDGQCGSPLVSTRDGFIVGIHSASNFTNTNNYFTSVPKNFMELLTNQEAQQWVSGWRLNADSVLWGGHKVFMVKPEEPFQPVKEATQL [E107T] | – | – | – | – | – | – | 0.0954 |
